From paper PMC5405867 (Nature structural & molecular biology, 2017)

Biological target: T1, murine USP18 catalytic core (residues 46-368), His6-tagged (mouse, UniProt Q9WTV6 46-368)
T1 sequence (looked up): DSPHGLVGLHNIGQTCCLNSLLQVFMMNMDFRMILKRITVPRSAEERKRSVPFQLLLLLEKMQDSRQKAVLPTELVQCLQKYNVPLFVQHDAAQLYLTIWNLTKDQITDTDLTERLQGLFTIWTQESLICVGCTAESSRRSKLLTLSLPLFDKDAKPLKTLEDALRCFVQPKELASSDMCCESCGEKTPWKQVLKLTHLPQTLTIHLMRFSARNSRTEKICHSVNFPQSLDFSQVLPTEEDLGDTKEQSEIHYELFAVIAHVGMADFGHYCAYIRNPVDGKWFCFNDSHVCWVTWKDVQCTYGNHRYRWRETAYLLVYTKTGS
Assay: covalent adduct formation with an active-site probe

- binding result: binds
B1: human ISG15-PA ([…], C78S, propargylamide probe) (natural protein)
chain: not shown
modifications: C-terminal propargylamide (PA)
